The values below come from PubChem BioAssay (NCI).

Molecules are shown by their SMILES. Where “and” joins values, the source holds several entries; their conditions need not be identical. Equal entries are not always repeated.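 How tested: cells in 96-well plates exposed to compound for 48 hours at five concentrations. GI50 = concentration required for 50% inhibition of growth. TGI denotes the concentration required for complete inhibition of growth.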

The test system of this assay is NCI-H322M lung. Briefly: growth of human tumour cells (NCI), 48 h.

Regarding `C=CCn1c(-c2cc(C(C)(C)C)c(O)c(C(C)(C)C)c2)cs/c1=N\C(P(=O)(O)O)P(=O)(O)O`, the TGI is greater than 100 µM.
Turning to `Cc1ccc2c(c1)[n+](=O)c(C(=O)c1cccs1)c(C(F)(F)F)n2[O-]`, the GI50 is 0.886 µM and 0.836 µM; the TGI is 3.07 µM and 7.2 µM.
Regarding `CC(=O)Nc1ccc(-c2nnc(SCC(=O)Nc3cccc(C)c3)o2)cc1`, the TGI was greater than 100 µM.
As for `O=C([CH-]C(=O)c1ccccc1)c1ccccc1.[C-]#[O+].[C-]#[O+].[Ir]`, the GI50 was 0.581 µM and the TGI is 35.7 µM.
Consider `CCOC(=O)/C(Br)=C1\OC(=O)c2ccccc2-c2ccccc21`, for which the TGI is greater than 100 µM.
Take `NC(N)=NN=c1c(=O)c2ccccc2c1=O`: the GI50 is 17.5 µM and the TGI came out at 31.6 µM.
For `COc1ccc(C(=O)/C=C/c2sc(Cl)nc2Cl)cc1`, in that order: 2.97 µM and 10.7 µM.
On to `C[C@H]1CCC/C=C/C2CC(OC(=O)CN(C)C)CC2C(OC(=O)CN(C)C)/C=C/C(=O)O1` (stereo partly specified), for which the GI50 is 0.565 µM and the TGI came to 15.5 µM.
For the molecule `[N-]=[N+]=CC(=O)C1(C(=O)C=[N+]=[N-])CC1`, the TGI was greater than 100 µM.
As for `C/C=C/CC(C(=O)OCC)(N(C)C(=O)OC(C)(C)C)S(=O)(=O)c1ccc(C)cc1` (stereo unspecified), the TGI was greater than 100 µM.
For the molecule `CCN(C(=O)N1CCN(c2cc3c(cc2F)c(=O)c(C(=O)O)cn3C2CC2)CC1)c1nc(-c2ccccc2)cs1`, the GI50 is 2.86 µM and the TGI is greater than 100 µM.
As to `CC(=O)N1C(C(=O)NN2CCOCC2)CSC1c1ccccc1` (stereo unspecified), the TGI is greater than 100 µM.
In turn, `C=C1CCC2CC1C(C(=O)c1c[nH]c3ccccc13)=NC2(C)C` (stereo unspecified) had a TGI greater than 100 µM.
The same measure, in the same setting: the figure for `O=[N+]([O-])c1ccc(CSc2nn(Cc3ccc([N+](=O)[O-])cc3)cc3ncnc2-3)cc1` is greater than 100 µM.
Take `O=C(NC1CCN(Cc2ccccc2)CC1)c1cc(-c2cccnc2)nc2ccc(Cl)cc12`: the GI50 is 20.5 µM and the TGI was greater than 100 µM.
Consider `CC(=O)NNc1nc(C)c(C(=O)NNC(=O)C(=O)Nc2ccc(Cl)c([N+](=O)[O-])c2)s1`, for which the TGI is greater than 100 µM.
With `C[C@@H]1C[C@H]2OC(=O)[C@@]3(C)CCC[C@@](C)([C@@H]23)[C@@]1(O)CCc1ccoc1`, the TGI was greater than 100 µM.
The molecule `CC[C@H](C)[C@H](NC(=O)N(CCC#N)CCN(CCN(C(=O)N[C@@H](Cc1ccccc1)C(=O)OC)c1ccccc1)C(=O)N[C@H](C(=O)OC)C(C)C)C(=O)OC` came in with a TGI of 33.6 µM.
Same read-out and setting: the figure for `CC(=O)Nc1ccccc1-c1nc2ccccc2nc1-c1ccccc1` is greater than 100 µM; for `O=Cc1c2c(cc3c1CC1(C3)Cc3cc4c(c(C=O)c3C1)CCCC4)CCCC2` it is greater than 31.6 µM; for `CC1(CO)C(O)CCC2(C)C1CCC1CC3CC12CCC3(O)CO` (stereo unspecified) it is greater than 100 µM.
Same read-out and setting: the figure for `N#CCCN(CCC#N)c1ccc(/C=C(/NC(=O)c2cc([N+](=O)[O-])ccc2Cl)C(=O)N=[N+]=[N-])cc1` is greater than 100 µM.
`O=C(O)c1cc(N=Nc2ccc([N+](=O)[O-])cc2)ccc1O` returned a TGI greater than 100 µM.
On the same count and under the same terms, as for `Clc1ccc(Nc2ncco2)cc1Cl`, the figure is greater than 10 µM; as for `NC1=NN(c2ccccc2)C(=O)C1C(=O)C(=O)Nc1ccc(Cl)cc1` (stereo unspecified), greater than 100 µM.
For `COc1ccccc1-n1cnc(N)c1C(=O)c1cc(OC)c(OC)c(OC)c1`, the GI50 is 9.58 µM and the TGI was greater than 100 µM.
The like results for `CCn1cnc(C[C@H](NC(=O)[C@H](CCCCNC(=O)Nc2cc(C(F)(F)F)cc(C(F)(F)F)c2)NC(=O)Nc2cc(C(F)(F)F)cc(C(F)(F)F)c2)C(=O)OC)c1` were, in that order, 6.8 µM and greater than 10 µM.
In turn, `O=C1OC(CC(=O)c2ccc(F)cc2)C(Cl)=C1Cl` (stereo unspecified) yielded a TGI of 34.8 µM.
Turning to `Cc1ccc(C2(O)c3ccccc3C(=O)N(C)C2(O)c2ccc(C)cc2)cc1` (stereo unspecified), the TGI was greater than 100 µM.
For the molecule `COc1ccccc1C1C2=C(COC2=O)Oc2cc3c(cc21)OCO3` (stereo unspecified), the TGI is greater than 69.5 µM.
`COC(=O)C1OC(O[C@H]2CC[C@]3(C)[C@H]4CC=C5[C@@H]6CC(C)(C)CC[C@]6(C(=O)OC)CC[C@@]5(C)[C@]4(C)CC[C@H]3C2(C)C)C(O)C(O)C1O` (stereo partly specified): the TGI came out at 30.4 µM.
On to `C=CC(=O)N[C@@H]1CN(c2nc(Nc3cn(C)nc3OC)c3ncn(C)c3n2)C[C@H]1F`, for which the GI50 is 0.152 µM and the TGI came to 20.8 µM.
`Cc1sc2c(c1C)C(=O)c1cccn1-2` registered a TGI greater than 100 µM.
With `Oc1ccc(-c2c3ccccc3c(-c3ccc(O)cc3)c3ccccc23)cc1`, the TGI is greater than 100 µM.
As for `O/N=C1/CCCC/C1=C/C=C/c1ccccc1`, the TGI was 74.7 µM.
Same read-out and setting: as for `c1ccc2c(c1)[nH]c1cnc3c4ncccc4[nH]c3c12`, the figure is greater than 100 µM; as for `COC(=O)c1cc(-c2ccc3ccccc3c2)[nH]c(=O)c1C#N`, greater than 100 µM.
Take `C[C@@H]1CC[C@H]2[C@@H](C)C(O)O[C@@H]3O[C@]4(C)CC[C@@H]1[C@]32OO4` (stereo partly specified): the GI50 is 13.1 µM and the TGI is greater than 100 µM.
For the molecule `CC1CC(=O)Nc2ccc(Cl)cc2N1C(=O)CN1CCC(CCCCN(C)C)CC1` (stereo unspecified), the TGI is greater than 100 µM.
The same measure, in the same setting: the figure for `NC(Cc1ccccc1)C(=O)OCN1C(=O)C2C3C=CC(C2C1=O)C1C2C(=O)N(COC(=O)C(N)Cc4ccccc4)C(=O)C2C31` (stereo unspecified) is greater than 100 µM.
As to `Cc1cccc2c(C3=C(c4cn(C)c5ccccc45)C(=O)NC3=O)cn(C)c12`, the GI50 is greater than 25 µM and the TGI was greater than 25 µM.
With `C[C@@H](Nc1nc(N[C@H](C)C(F)(F)F)nc(-c2cccc(Cl)n2)n1)C(F)(F)F`, the GI50 was 46.8 µM and the TGI is greater than 100 µM.
Molecule `N#Cc1ncc(C(Cl)Cl)nc1Cl` registered a TGI greater than 10 µM.
The same measure, in the same setting: as for `O=C1/C(=C/c2cccnc2)SC(=S)N1Cc1ccco1`, the figure is greater than 100 µM.
Consider `CC/C=C\C[C@H]1C/C=C2/C(=O)C=C[C@H]2C/C=C\CCCC(=O)O1`, for which the GI50 is 5.34 µM and the TGI turned out to be 11.5 µM.
Take `Clc1ccc(-c2cc(-c3ccccc3)nc(N3CCN(CCCNc4ccnc5cc(Cl)ccc45)CC3)n2)cc1`: the GI50 is 1.54 µM and the TGI was found to be 2.9 µM.
Consider `OCC#CCOCC#Cc1ccccc1C#CCOCC#CCO`, for which the GI50 was 38.8 µM and the TGI is greater than 100 µM.
For `Nc1nc(N)c2c(n1)NC(c1sc(Cl)nc1Cl)CC(c1ccccc1)=N2` (stereo unspecified), in that order: 11.8 µM and 24.1 µM.
For `O=C(NN1C(=O)C(Cl)C1c1cccc(O)c1)c1ccccc1O` (stereo unspecified), the TGI was greater than 100 µM.
Still for that read-out and setting: the figure for `CCOC(=O)Cc1c(C)c2ccc(OC(C)=O)c(OC(C)=O)c2oc1=O` is 89 µM.
Still for that read-out and setting: as for `Cc1cccc2c(N)c3cccc(C(=O)NCC[N+](C)(C)Cc4ccc([N+](=O)[O-])n4C)c3nc12`, the figure is 70.9 µM.
With `Cc1ccc(S(=O)(=O)NC(=O)C2S(=O)(=O)OCCOS2(=O)=O)cc1`, the TGI was greater than 100 µM.
Still for that read-out and setting: the figure for `Cc1ccc2nc(N)[nH]c(=O)c2c1Sc1ccncc1` is greater than 100 µM.
As to `CC(C)C[C@H](CC(=O)O)C(=O)N[C@@H](Cc1c[nH]c2ccccc12)C(=O)N[C@@H](C)c1ccccc1`, the GI50 was greater than 25 µM and the TGI is greater than 25 µM.
As for `Oc1ccc(NC(=S)Nc2ccccc2)cc1`, the GI50 is greater than 100 µM and the TGI was greater than 100 µM.
Consider `O=C(Nc1ccccc1)c1cc2ccccc2c(N=Nc2cccc([N+](=O)[O-])c2)c1O`, for which the TGI is greater than 100 µM.
Same read-out and setting: as for `CC(=O)O[C@@H]1[C@H](OC2CCCCC2(c2ccccc2)c2ccccc2)O[N+]([O-])=CC12CCCCC2` (stereo partly specified), the figure is 30.3 µM; as for `Cc1cc(=O)oc2c(C3=NN(C=O)C(c4ccccc4)C3)c(O)ccc12` (stereo unspecified), greater than 100 µM; as for `COc1ccc(C=Nc2ccc(-c3nc4ccccc4s3)cc2)cc1OC`, greater than 100 µM.
`c1ccc(-c2csc3c2-n2cccc2C3N2CCCC2)cc1` (stereo unspecified): the TGI is greater than 100 µM.
On to `O=C1c2c(O)cccc2C(C(=O)CCCCCC(=O)C2c3cccc(O)c3C(=O)c3c(O)cccc32)c2cccc(O)c21`, for which the GI50 is 6.08 µM; the TGI was 12.8 µM and 32.4 µM.
On to `O=C(Nc1ccccc1[N+](=O)[O-])/C(=N/Nc1cccc(Cl)c1)c1c(O)c2ccccc2oc1=O`, for which the TGI was greater than 100 µM.
In the case of `Cc1nnc(C[C@@H]2C=C(c3ccc(Cl)cc3)c3ccccc3-n3c(C)nnc32)o1`, the GI50 is 2.28 µM and the TGI was greater than 100 µM.
`c1ccc2c(c1)nnn2CNc1ccc(N2CCCCC2)cc1` yielded a TGI greater than 100 µM.
Turning to `CN(C)CCCNC(=O)N/N=C/c1ccc(O)cc1`, the TGI is greater than 100 µM.
Same read-out and setting: the figure for `CC(=N/NC(=S)N1CCCCCC1)/C(C)=N\NC(=S)N1CCCCCC1` is 11.6 µM; for `CC(Oc1cc2oc(=O)cc(-c3ccccc3)c2cc1Cl)C(=O)O` (stereo unspecified) it is greater than 100 µM; for `COc1ccc(-c2nc(-c3ccc(OC)cc3)n(-c3ccccc3)n2)cc1` it is greater than 100 µM.
`CC(=O)N[C@H](C)[C@@H](O)[C@@H](C)[C@@H]1OC(=O)/C=C/C=C(C)\C=C\[C@]2(C)C[C@@H](NS(C)(=O)=O)C=C[C@@H]2/C=C(C)/C=C/[C@H]1C` showed a TGI greater than 43.5 µM.
As to `CC[C@@]1(O)C(=O)OCc2c1cc1n(c2=O)Cc2cc3cc(Cl)ccc3nc2-1`, the GI50 is 0.0415 µM and the TGI is 0.459 µM.
Consider `Cc1nc2cn3c(c2c(=O)[nH]1)CCCCC3`, for which the TGI is greater than 100 µM.
Regarding `Cc1ccc(S(=O)(=O)NC(=O)Nc2c(S(N)(=O)=O)cc(S(N)(=O)=O)c(Cl)c2Cl)cc1`, the TGI was greater than 100 µM.
Molecule `N#C/C(=C\c1ccc(O)c(O)c1)c1c(C#N)c(N)nn1-c1ccccc1` came in with a TGI of 87.2 µM.
Still for that read-out and setting: as for `CCCC(=O)OCC1OC2OC(C)(C)OC2C2OC(C)(C)OC12` (stereo unspecified), the figure is greater than 100 µM; as for `CCOC(=O)C1(CC(=O)O)CCCC1=O` (stereo unspecified), greater than 100 µM.
Turning to `O=CC(OC(=O)c1ccccc1)C(OC(=O)c1ccccc1)C(COC(c1ccccc1)(c1ccccc1)c1ccccc1)OC(=O)c1ccccc1` (stereo unspecified), the GI50 was 26.5 µM and the TGI came out at 82.2 µM.
`COc1ccc(C(c2ccccc2C(=O)O)c2ccc(OC)c3ccccc23)c2ccccc12` returned a TGI of 29 µM.
Same read-out and setting: the figure for `CC1CC(C[N+](=O)[O-])CC2(C1)OCCO2` (stereo unspecified) is greater than 100 µM.
Regarding `c1ccc(-c2cnc(SC(c3ccccc3)c3ccccc3)[nH]2)cc1`, the TGI is greater than 100 µM.
For the molecule `Cc1nc2ccccn2c1NC(=O)NN1C(=O)CSC1c1ccc(Cl)cc1` (stereo unspecified), the GI50 is greater than 100 µM and the TGI is greater than 100 µM.
In the case of `CN(C)c1ccc(/C=C/C(=O)c2ccc(Nc3nc(Nc4ccc(F)cc4)nc(Nc4ccc(F)cc4)n3)cc2)cc1`, the GI50 was 32.8 µM and the TGI was greater than 100 µM.
